Measured values as given in the supplement of paper PMC12217912.
Some of the results follow. The full chains were built here from the parent and the listed change. Inactive controls read about 0.05.

B1: TEV protease; numbered along this chain (parent)
chain: MGESLFKGPRDYNPISSSICHLTNESDGHTTSLYGIGFGPFIITNKHLFRRNNGTLVVQSLHGVFKVKDTTTLQQHLVDGRDMIIIRMPKDFPPFPQKLKFREPQREERICLVTTNFQTKSMSSMVSDTSCTFPSGDGIFWKHWIQTKDGQCGSPLVSTRDGFIVGIHSASNFTNTNNYFTSVPKNFMELLTNQEAQQWVSGWRLNADSVLWGGHKVFMVKPEEPFQPVKEATQL

Variants of: B1
Assay: raw area under fraction-flipped curve 0-4 h after induction (AUC4h, not background-subtracted), DNA-recorder readout of cleavage of the substrate (dimensionless); higher = more cleavage of the substrate by the protease variant
Conditions: temperature: 34 °C; time window: 0-4 h after rhamnose induction
Method: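 In vivo DNA recorder in E. coli TOP10(DE3) ΔrhaA at 34 °C. Each TEVp single-site mutant (parent TEVp 0) is paired with a single-site variant of the 7-mer TEVs (canonical ENLYFQ|S). The substrate sits between flexible linkers in a Bxb1-sfGFP-TEVs-SsrA fusion, so cleavage stabilises Bxb1 and speeds flipping of a recombination array, read by NGS. The value is the raw area under the fraction-flipped curve over 0-4 h after rhamnose induction (AUC4h), with ≥20 reads per time point. It is not background-subtracted; inactive controls average about 0.047.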
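Note: Bxb1 expression induced with 0.2% (w/v) L-rhamnose at OD600 near 0.5, cultures sampled hourly, flipped fraction per protease–substrate barcode pair counted by paired-end Illumina sequencing.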

## V157Y
  area with substrate ENLYCQS: 0.0715
  area with substrate ENLYDQS: 0.0584
  area with substrate ENLYEQS: 0.0556
  area with substrate ENLYGQS: 0.051
  area with substrate ENLYHQS: 0.0571
  area with substrate ENLYIQS: 0.0977
  area with substrate ENLYKQS: 0.0655
  area with substrate ENLYLQS: 0.0718
  area with substrate ENLYMQS: 0.0686
  area with substrate ENLYNQS: 0.0624
  area with substrate ENLYPQS: 0.0641
  area with substrate ENLYQQS: 0.0502
  area with substrate ENLYRQS: 0.0543
  area with substrate ENLYSQS: 0.0638
  area with substrate ENLYTQS: 0.0429
  area with substrate ENLYWQS: 0.0567
  area with substrate ENLYYQS: 0.0763

## F163T
  area with substrate ENLYCQS: 0.0842
  area with substrate ENLYDQS: 0.0697
  area with substrate ENLYEQS: 0.0683
  area with substrate ENLYGQS: 0.063
  area with substrate ENLYHQS: 0.0732
  area with substrate ENLYMQS: 0.121
  area with substrate ENLYNQS: 0.0595
  area with substrate ENLYPQS: 0.0703
  area with substrate ENLYQQS: 0.0598
  area with substrate ENLYRQS: 0.0727
  area with substrate ENLYVQS: 0.111
  area with substrate ENLYWQS: 0.0713
  area with substrate ENLYYQS: 0.0765

## T181S
  area with substrate ENLYCQS: 0.0886
  area with substrate ENLYDQS: 0.0378
  area with substrate ENLYEQS: 0.0828
  area with substrate ENLYGQS: 0.0602
  area with substrate ENLYHQS: 0.0551
  area with substrate ENLYIQS: 0.0796
  area with substrate ENLYKQS: 0.0681
  area with substrate ENLYLQS: 0.0663
  area with substrate ENLYPQS: 0.0649
  area with substrate ENLYQQS: 0.0638
  area with substrate ENLYTQS: 0.0774

## I167N
  area with substrate ENLYCQS: 0.0598
  area with substrate ENLYHQS: 0.0593
  area with substrate ENLYIQS: 0.0563
  area with substrate ENLYKQS: 0.0546
  area with substrate ENLYLQS: 0.0676
  area with substrate ENLYMQS: 0.0522
  area with substrate ENLYNQS: 0.0488
  area with substrate ENLYPQS: 0.0425
  area with substrate ENLYQQS: 0.0452
  area with substrate ENLYTQS: 0.0616
  area with substrate ENLYVQS: 0.0592
  area with substrate ENLYWQS: 0.0601
  area with substrate ENLYYQS: 0.0519

## D208G
  area with substrate ENLYCQS: 0.0687
  area with substrate ENLYDQS: 0.0594
  area with substrate ENLYEQS: 0.0646
  area with substrate ENLYGQS: 0.0651
  area with substrate ENLYHQS: 0.0767
  area with substrate ENLYIQS: 0.1
  area with substrate ENLYKQS: 0.0245
  area with substrate ENLYMQS: 0.0808
  area with substrate ENLYNQS: 0.0694
  area with substrate ENLYQQS: 0.103
  area with substrate ENLYRQS: 0.0571
  area with substrate ENLYWQS: 0.0753
  area with substrate ENLYYQS: 0.0568

## T129Y
  area with substrate ENLYCQS: 0.0795
  area with substrate ENLYDQS: 0.0746
  area with substrate ENLYEQS: 0.0698
  area with substrate ENLYGQS: 0.0753
  area with substrate ENLYIQS: 0.11
  area with substrate ENLYLQS: 0.0693
  area with substrate ENLYNQS: 0.0604
  area with substrate ENLYRQS: 0.0685
  area with substrate ENLYSQS: 0.0429
  area with substrate ENLYTQS: 0.057
  area with substrate ENLYVQS: 0.112

## D161E
  area with substrate ENLYCQS: 0.062
  area with substrate ENLYDQS: 0.0298
  area with substrate ENLYEQS: 0.0559
  area with substrate ENLYGQS: 0.0606
  area with substrate ENLYHQS: 0.0657
  area with substrate ENLYIQS: 0.0958
  area with substrate ENLYKQS: 0.0575
  area with substrate ENLYMQS: 0.056
  area with substrate ENLYNQS: 0.0642
  area with substrate ENLYPQS: 0.0617
  area with substrate ENLYQQS: 0.0514
  area with substrate ENLYSQS: 0.0719
  area with substrate ENLYTQS: 0.0729
  area with substrate ENLYVQS: 0.124
  area with substrate ENLYWQS: 0.0627

## H143T
  area with substrate ENLYCQS: 0.0657
  area with substrate ENLYDQS: 0.0632
  area with substrate ENLYEQS: 0.0604
  area with substrate ENLYGQS: 0.0767
  area with substrate ENLYHQS: 0.0505
  area with substrate ENLYIQS: 0.0763
  area with substrate ENLYKQS: 0.0539
  area with substrate ENLYLQS: 0.0596
  area with substrate ENLYMQS: 0.0748
  area with substrate ENLYNQS: 0.063
  area with substrate ENLYRQS: 0.0551
  area with substrate ENLYSQS: 0.0665
  area with substrate ENLYVQS: 0.0577
  area with substrate ENLYWQS: 0.069
  area with substrate ENLYYQS: 0.0799

## I86G
  area with substrate ENLYCQS: 0.0454
  area with substrate ENLYEQS: 0.0394
  area with substrate ENLYGQS: 0.0528
  area with substrate ENLYHQS: 0.0435
  area with substrate ENLYKQS: 0.0339
  area with substrate ENLYMQS: 0.0215
  area with substrate ENLYNQS: 0.0433
  area with substrate ENLYWQS: 0.0147
  area with substrate ENLYYQS: 0.0282

## L190S
  area with substrate ENLYCQS: 0.0674
  area with substrate ENLYEQS: 0.0771
  area with substrate ENLYGQS: 0.0631
  area with substrate ENLYHQS: 0.0764
  area with substrate ENLYLQS: 0.0698
  area with substrate ENLYMQS: 0.0777
  area with substrate ENLYPQS: 0.0504
  area with substrate ENLYQQS: 0.0736
  area with substrate ENLYSQS: 0.1
  area with substrate ENLYVQS: 0.093

## L190E
  area with substrate ENLYCQS: 0.0742
  area with substrate ENLYDQS: 0.0673
  area with substrate ENLYEQS: 0.0647
  area with substrate ENLYGQS: 0.0646
  area with substrate ENLYHQS: 0.0611
  area with substrate ENLYKQS: 0.0554
  area with substrate ENLYMQS: 0.0745
  area with substrate ENLYNQS: 0.0731
  area with substrate ENLYPQS: 0.0798
  area with substrate ENLYQQS: 0.0558
  area with substrate ENLYRQS: 0.0668
  area with substrate ENLYSQS: 0.0742
  area with substrate ENLYVQS: 0.12
  area with substrate ENLYWQS: 0.0849
  area with substrate ENLYYQS: 0.0633

## S17Y
  area with substrate ENLYCQS: 0.107
  area with substrate ENLYDQS: 0.0533
  area with substrate ENLYEQS: 0.0589
  area with substrate ENLYGQS: 0.0607
  area with substrate ENLYHQS: 0.0732
  area with substrate ENLYIQS: 0.124
  area with substrate ENLYKQS: 0.0619
  area with substrate ENLYLQS: 0.0874
  area with substrate ENLYMQS: 0.0374
  area with substrate ENLYNQS: 0.069
  area with substrate ENLYPQS: 0.0872
  area with substrate ENLYQQS: 0.0823
  area with substrate ENLYRQS: 0.0622
  area with substrate ENLYSQS: 0.0756
  area with substrate ENLYTQS: 0.0793
  area with substrate ENLYVQS: 0.117
  area with substrate ENLYWQS: 0.0715
  area with substrate ENLYYQS: 0.0709

## L61V
  area with substrate ENLYCQS: 0.0681
  area with substrate ENLYDQS: 0.0622
  area with substrate ENLYEQS: 0.0654
  area with substrate ENLYHQS: 0.0773
  area with substrate ENLYKQS: 0.0684
  area with substrate ENLYMQS: 0.0991
  area with substrate ENLYNQS: 0.0684
  area with substrate ENLYPQS: 0.0909
  area with substrate ENLYRQS: 0.0563
  area with substrate ENLYWQS: 0.0824

## N186S
  area with substrate ENLYCQS: 0.0849
  area with substrate ENLYEQS: 0.0535
  area with substrate ENLYGQS: 0.09
  area with substrate ENLYHQS: 0.0621
  area with substrate ENLYIQS: 0.126
  area with substrate ENLYKQS: 0.0731
  area with substrate ENLYMQS: 0.0814
  area with substrate ENLYNQS: 0.0598
  area with substrate ENLYQQS: 0.0545
  area with substrate ENLYRQS: 0.0398
  area with substrate ENLYTQS: 0.109
